The values below come from paper PMC4336329 (PLoS ONE, 2015).

SMILES strings stand for the structures. In all, about 310,000 compounds went through this assay and about 2,200 (0.71%) showed an effect of 50% or more. Effects have a minus sign here. Some of the results follow.

This test deals with human ether-à-go-go-related gene (hERG) potassium channel (human, UniProt Q12809). In words: primary screen, population patch clamp on CHO cells stably expressing hERG.
Chain of human ether-à-go-go-related gene (hERG) potassium channel (Q12809 whole entry, looked up): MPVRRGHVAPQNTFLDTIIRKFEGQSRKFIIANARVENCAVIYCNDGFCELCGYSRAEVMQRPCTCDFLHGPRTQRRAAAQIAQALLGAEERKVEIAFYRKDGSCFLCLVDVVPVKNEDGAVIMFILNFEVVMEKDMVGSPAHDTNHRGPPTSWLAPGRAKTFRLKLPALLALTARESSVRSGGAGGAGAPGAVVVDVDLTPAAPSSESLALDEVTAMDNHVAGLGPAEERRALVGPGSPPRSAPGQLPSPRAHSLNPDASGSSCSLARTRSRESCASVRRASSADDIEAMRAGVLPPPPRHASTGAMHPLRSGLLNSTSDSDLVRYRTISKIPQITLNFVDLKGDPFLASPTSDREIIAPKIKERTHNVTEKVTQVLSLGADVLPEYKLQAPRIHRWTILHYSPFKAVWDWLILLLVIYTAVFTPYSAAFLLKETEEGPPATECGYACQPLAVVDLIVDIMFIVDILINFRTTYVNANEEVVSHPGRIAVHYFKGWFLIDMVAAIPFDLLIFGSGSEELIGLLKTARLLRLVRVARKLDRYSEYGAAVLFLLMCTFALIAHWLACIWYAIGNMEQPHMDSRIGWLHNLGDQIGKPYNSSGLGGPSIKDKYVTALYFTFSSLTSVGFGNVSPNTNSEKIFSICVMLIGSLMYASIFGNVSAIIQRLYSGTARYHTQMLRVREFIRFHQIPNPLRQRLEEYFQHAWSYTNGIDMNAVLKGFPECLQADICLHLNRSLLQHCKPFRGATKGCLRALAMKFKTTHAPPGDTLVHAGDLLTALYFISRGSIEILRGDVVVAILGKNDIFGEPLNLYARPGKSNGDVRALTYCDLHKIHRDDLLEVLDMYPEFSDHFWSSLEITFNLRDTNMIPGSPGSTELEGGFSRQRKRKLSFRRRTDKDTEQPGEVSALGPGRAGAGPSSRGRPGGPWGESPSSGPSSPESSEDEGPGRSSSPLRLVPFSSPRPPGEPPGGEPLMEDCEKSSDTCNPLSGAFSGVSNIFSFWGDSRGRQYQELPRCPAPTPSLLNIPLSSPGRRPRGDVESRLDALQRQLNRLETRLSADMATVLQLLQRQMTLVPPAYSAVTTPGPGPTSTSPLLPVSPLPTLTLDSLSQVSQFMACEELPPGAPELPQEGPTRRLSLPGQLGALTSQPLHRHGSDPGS
Consider `O=C(Nc1ccc(S(=O)(=O)Nc2nccs2)cc1)c1nn(-c2ccccc2)ccc1=O`, for which the “hERG current change (%, negative = inhibition) at 1uM” value is 14.8%.

Turning to `CCN1C[C@@]2(COC)C3[C@@H](OC)[C@H]4[C@@H]1[C@@]3(C1C[C@H]3[C@H](OC(C)=O)C1[C@]4(OC(C)=O)C[C@H]3OC)[C@@H](OC)C[C@H]2OC(C)=O` (stereo partly drawn), the “hERG current change (%, negative = inhibition) at 1uM” value was 1.04%.

Turning to `CN(c1ccc(C(=O)N/N=C/c2cccc([N+](=O)[O-])c2)cc1)S(=O)(=O)c1ccccc1`, the “hERG current change (%, negative = inhibition) at 1uM” value was 16%.

Turning to `COC(=O)CNC(=O)C1CCC(CNS(=O)(=O)c2cccc3nsnc23)CC1` (stereo not drawn), the “hERG current change (%, negative = inhibition) at 1uM” value is listed as 16.6%.

Regarding `N#Cc1c(N)nc2c(c1-c1ccco1)CCCCC2`, the “hERG current change (%, negative = inhibition) at 1uM” value was determined as 12.2%.

Turning to `CCC1(CC)C(=O)N(C)C(=O)NC1=Nc1ccc(OC)cc1`, the “hERG current change (%, negative = inhibition) at 1uM” value was found to be 12%.

Turning to `OC12CCCCC1C(c1ccc3c(c1)OCO3)N(Cc1ccccc1F)CC2` (stereo not drawn), the “hERG current change (%, negative = inhibition) at 1uM” value was 1.69%.

In the case of `COC(=O)C1C(=O)c2c([nH]c(C(=O)OC3CCCCCC3)c2C)CC1C` (stereo not drawn), the “hERG current change (%, negative = inhibition) at 1uM” value was found to be 9.78%.

In the case of `O=C1c2ccccc2NC(c2cn[nH]c2-c2ccccc2)N1O` (stereo not drawn), the “hERG current change (%, negative = inhibition) at 1uM” value was found to be 5.48%.

Turning to `Cc1ccc(C23CC4CC(CC(C(=O)NC(C)C(=O)O)(C4)C2)C3)cc1` (stereo not drawn), the “hERG current change (%, negative = inhibition) at 1uM” value was determined as 16.9%.

For the compound `N#Cc1cc(-c2ccccc2)nnc1Sc1ccccc1`, the “hERG current change (%, negative = inhibition) at 1uM” value was 15.2%.

As to `COc1cccc(C(=O)O/N=C/c2ccc(Sc3ccc(C)cc3)nc2)c1`, the “hERG current change (%, negative = inhibition) at 1uM” value is on record as 16.5%.

With `C=CCN1C=C2C(=O)C(C)(OC(=O)c3ccc(OC)cc3)C(=O)C(c3ccco3)=C2C=C1CCCC` (stereo not drawn), the “hERG current change (%, negative = inhibition) at 1uM” value is on record as 16.4%.

`COS(=O)(=O)[O-].Cn1nnc(CC[N+](C)(C)C)n1`: the “hERG current change (%, negative = inhibition) at 1uM” value was 15.3%.

For `Cc1cc2nc(-c3cccnc3SCC(=O)NC(C)C)[nH]c2cc1C`, the “hERG current change (%, negative = inhibition) at 1uM” value is on record as 7.83%.

Take `Clc1ccc(-c2cc(CSc3ccccc3)on2)cc1`: the “hERG current change (%, negative = inhibition) at 1uM” value is 10.7%.

For `O=C(O)c1cc([N+](=O)[O-])cc2c1C=Cc1ccccc1O2`, the “hERG current change (%, negative = inhibition) at 1uM” value is 19.6%.

As to `c1coc(CSc2ncnc3c2oc2ccccc23)c1`, the “hERG current change (%, negative = inhibition) at 1uM” value was determined as 12.4%.

For the compound `Cc1ccc(-n2c(SCC(=O)N3CCC(C(=O)O)CC3)nc3ccccc3c2=O)cc1C`, the “hERG current change (%, negative = inhibition) at 1uM” value was 19.2%.

Turning to `Nc1ccccc1/C=N\N=C/c1ccccc1N`, the “hERG current change (%, negative = inhibition) at 1uM” value came to 6.7%.

Regarding `CCNc1ccc(C(=O)Nc2ccc3nc(C)sc3c2)cc1[N+](=O)[O-]`, the “hERG current change (%, negative = inhibition) at 1uM” value is given as 8.82%.

Take `CCOc1ccccc1CN1CCNC(=O)C1CC(=O)NC1CCCCC1` (stereo not drawn): the “hERG current change (%, negative = inhibition) at 1uM” value is given as 12.8%.

Consider `Cc1ccc(OCC(=O)NNC(=O)CSc2ncc(C#N)c(N)n2)cc1`, for which the “hERG current change (%, negative = inhibition) at 1uM” value is given as 6.73%.

Consider `COc1ccc(CCNC(=O)c2cc3c(=O)n4ccccc4nc3n(Cc3ccco3)c2=N)cc1OC`, for which the “hERG current change (%, negative = inhibition) at 1uM” value is -74.3%.

In the case of `O=C(NCC1CCCO1)C1CCN(S(=O)(=O)N2CCCC2)CC1` (stereo not drawn), the “hERG current change (%, negative = inhibition) at 1uM” value is recorded as 3.93%.

Consider `CN(C)c1ccc(C(=S)N2CCN(Cc3ccccc3)CC2)cc1`, for which the “hERG current change (%, negative = inhibition) at 1uM” value is reported as -7.94%.

Regarding `Cn1c(O)c(/C=N/N2CCCCC2)c(=O)[nH]c1=O`, the “hERG current change (%, negative = inhibition) at 1uM” value is 9.92%.

Turning to `CC1(C)CC(=O)C(N=Nc2cc3c(cc2[N+](=O)[O-])OCCO3)=C(O)C1`, the “hERG current change (%, negative = inhibition) at 1uM” value is recorded as 21%.

On to `CC1=NN(C(=O)CCc2ccccc2O)C(O)(C(F)(F)F)C1` (stereo not drawn), for which the “hERG current change (%, negative = inhibition) at 1uM” value was determined as 8.68%.

On to `NCCCC[C@H]1CNC(=O)C(=O)N1CCC12CC3CC(CC(C3)C1)C2`, for which the “hERG current change (%, negative = inhibition) at 1uM” value was 7.13%.

Take `Cc1ccc(SCC(=O)OCC(=O)NC2CCCCCCC2)cc1`: the “hERG current change (%, negative = inhibition) at 1uM” value amounted to 18.5%.

As to `O=C(NCCc1ccccc1)C1CCN(Cc2cccc3ccccc23)CC1`, the “hERG current change (%, negative = inhibition) at 1uM” value was -1.42%.

Turning to `Cc1ccc2nc(N3CCN(c4ccccc4F)CC3)c(C=O)c(=O)n2c1`, the “hERG current change (%, negative = inhibition) at 1uM” value is -4.86%.

Consider `O=C(CN(C1CCCCC1)S(=O)(=O)c1ccc(Cl)cc1)NCCCO`, for which the “hERG current change (%, negative = inhibition) at 1uM” value was -1.44%.

For the compound `O=C(Nc1ccccc1F)Nc1ccc([N+](=O)[O-])cc1Cl`, the “hERG current change (%, negative = inhibition) at 1uM” value was 14.9%.

In the case of `COc1ccc(NC(=O)CSCC(=O)N(C)Cc2c(F)cccc2Cl)cc1`, the “hERG current change (%, negative = inhibition) at 1uM” value was 4.83%.

For `COc1ccc2[nH]c(C(=O)Nc3ccccc3Cl)cc2c1`, the “hERG current change (%, negative = inhibition) at 1uM” value is on record as 7.42%.

`C=CCn1c(SCC(=O)Nc2ccc(-c3nc4ccc(C)cc4s3)cc2)nnc1-c1ccncc1`: the “hERG current change (%, negative = inhibition) at 1uM” value came to 6.15%.

Turning to `O=C(CN1C(=O)C2CC=CCC2C1=O)Nc1ccc(S(=O)(=O)NC2=NCCCCC2)cc1` (stereo not drawn), the “hERG current change (%, negative = inhibition) at 1uM” value amounted to 6.35%.

Take `COc1ccc(C2CC3(CC(C)(C)NC(SC)=N3)Oc3cc(O)cc(C)c32)cc1.I` (stereo not drawn): the “hERG current change (%, negative = inhibition) at 1uM” value is given as -28.7%.

Turning to `CCCN(C(=O)Cc1coc2cc(C)c(C)cc12)c1c(N)n(Cc2ccccc2)c(=O)[nH]c1=O`, the “hERG current change (%, negative = inhibition) at 1uM” value is reported as -1.29%.

With `O=C(c1ccc2ncsc2c1)N1CCCC(C(F)(F)F)C1` (stereo not drawn), the “hERG current change (%, negative = inhibition) at 1uM” value is 21.9%.
